Consider one substance from paper PMC10150588.

pKd: −log10 of the molar value. Read-outs that look alike come from different tables or passages of the source.

Assay [1] has as its target TP (MLV integrase C-terminal tail peptide) (Moloney murine leukemia virus). Briefly: ITC.
Assay [2] shares this target. As to the kind of experiment: ITC. This is another data set of the same source. For orientation: Isothermal titration calorimetry measures the heat released or taken up as one component is titrated into another.

In general, pKd refers to the negative decadic logarithm of the Kd, by convention in mol/L. Read a low pKd as a large Kd. Take BRD3 ET domain […] (sequence left out): the pKd is 7.05 in assay [1] and 7.89 in assay [2].
